A collection of fitness landscapes (doi:10.1016/j.celrep.2020.107928)
In all, about 81,000 sequences were measured (“one-hybrid fitness for binding parS DNA”: median about -0.17, highest 2% from about 0.51 on). The list shows a part of the results.

B1: Caulobacter ParB omega fusion; a variant is named by its letters at X, in order, B8GW30 (parent)
chain: MESVVVGEPGMSEGRRGLGRGLSALLGEVDAAPAQAPGEQLGGSREAPIEILQRNPDQPRRTFREEDLEDLSNSIREKGVLQPILVRPSPDTAGEYQIVAGERAWRAAQRAGLKTVPIMVRELDDLAVLEIGIIENVQRADLNVLEEALSYKVLMEKFERTQENIAQTIGKSXSHVANXMRLLXLPDEVQSYLVSGELTAXHARAIAAAADPVALAKQIIEGGLSVRETEALARKAPNLSAGKSKGGRPPRVKDTDTQALESDLSSVLGLDVSIDHRGSTGTLTITYATLEQLDDLCNRLTRGI

Variants of: B1
Experiment: one-hybrid fitness for binding parS DNA (scaled: cognate 1, non-cognate 0); higher = stronger binding
Conditions: with parS DNA site
How it was run: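 Fitness is the rescaled log change in variant-to-wild-type read ratio, measured by Illumina sequencing of plasmids before and after bacterial one-hybrid selection. The scale puts cognate at 1 and non-cognate at 0. Selection of Caulobacter ParB libraries, four specificity codons randomised, took place in E. coli USO with a HIS3 reporter, site 19 bp from the promoter, over 48 hours at 37°C on M9-minus-histidine with 0.1 mM IPTG and 5 mM 3-AT.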

Row | Variant | one-hybrid fitness for binding parS DNA
1 | NFSG | ≤ 0.2
2 | SHLM | ≤ 0.2
3 | ENTM | ≤ 0.2
4 | CDVF | ≤ 0.2
5 | QKVN | ≤ 0.2
6 | SLVW | ≤ 0.2
7 | IGFS | ≤ 0.2
8 | LTEQ | ≤ 0.2
9 | LCSW | ≤ 0.2
10 | DHNR | ≤ 0.2
11 | KAKK | ≤ 0.2
12 | RSHK | ≤ 0.2
13 | NLQA | ≤ 0.2
14 | FRGR | ≤ 0.2
15 | NRMD | ≤ 0.2
16 | CMKT | ≤ 0.2
17 | YGSG | ≤ 0.2
18 | FLQG | ≤ 0.2
19 | TIPV | ≤ 0.2
20 | GACT | ≤ 0.2
21 | TNRV | ≤ 0.2
22 | KDIR | ≤ 0.2
23 | VTPL | ≤ 0.2
24 | RNSH | ≤ 0.2

Row | Variant | one-hybrid fitness for binding parS DNA
25 | RYGG | 0.97
26 | QMVL | ≤ 0.2
27 | MSYN | ≤ 0.2
28 | RCKH | ≤ 0.2
29 | QCRI | ≤ 0.2
30 | SRCR | ≤ 0.2
31 | QNVK | ≤ 0.2
32 | EYAR | ≤ 0.2
33 | FLLG | ≤ 0.2
34 | WVKG | ≤ 0.2
35 | RMGW | 0.233
36 | DPSG | ≤ 0.2
37 | TPLW | ≤ 0.2
38 | AWAC | ≤ 0.2
39 | LWKM | ≤ 0.2
40 | TLRN | ≤ 0.2
41 | NPSC | ≤ 0.2
42 | SARI | ≤ 0.2
43 | LTDP | ≤ 0.2
44 | PAHL | ≤ 0.2
45 | PSIF | ≤ 0.2
46 | TETC | ≤ 0.2
47 | GPGR | ≤ 0.2
48 | CDVR | ≤ 0.2

Row | Variant | one-hybrid fitness for binding parS DNA
49 | MKWG | ≤ 0.2
50 | GTSA | ≤ 0.2
51 | IART | ≤ 0.2
52 | SNDY | ≤ 0.2
53 | RFTP | ≤ 0.2
54 | PRYA | ≤ 0.2
55 | MDPC | ≤ 0.2
56 | QVRP | ≤ 0.2
57 | LMYC | ≤ 0.2
58 | GPLC | ≤ 0.2
59 | DTTV | ≤ 0.2
60 | LKMA | ≤ 0.2
61 | PAIS | ≤ 0.2
62 | RNQC | 0.82
63 | QFNS | ≤ 0.2
64 | FHSV | ≤ 0.2
65 | ILNS | ≤ 0.2
66 | NVET | ≤ 0.2
67 | VALI | ≤ 0.2
68 | PCRI | ≤ 0.2
69 | WPKG | ≤ 0.2
70 | VKSF | ≤ 0.2
71 | STEN | ≤ 0.2
72 | GEPK | ≤ 0.2

Row | Variant | one-hybrid fitness for binding parS DNA
73 | TNVW | ≤ 0.2
74 | ITEL | ≤ 0.2
75 | ILMM | ≤ 0.2
76 | QIGS | ≤ 0.2
77 | LRWK | ≤ 0.2
78 | KCTT | ≤ 0.2
79 | AEHP | ≤ 0.2
80 | FAMR | ≤ 0.2
81 | DKGS | ≤ 0.2
82 | VEKP | ≤ 0.2
83 | RLME | ≤ 0.2
84 | RQIN | 0.248
85 | HTTK | ≤ 0.2
86 | TARE | ≤ 0.2
87 | KTPT | ≤ 0.2
88 | RPKC | ≤ 0.2
89 | GYAT | ≤ 0.2
90 | AFSR | ≤ 0.2
91 | NLCA | ≤ 0.2
92 | QMRE | ≤ 0.2
93 | RAFG | 0.978
94 | VRHK | ≤ 0.2
95 | SSEH | ≤ 0.2
96 | IFTS | ≤ 0.2

Row | Variant | one-hybrid fitness for binding parS DNA
97 | RRWI | ≤ 0.2
98 | NYSE | ≤ 0.2
99 | HPVM | ≤ 0.2
100 | TCWL | ≤ 0.2
101 | AAEY | ≤ 0.2
102 | LTKA | ≤ 0.2
103 | VWTY | ≤ 0.2
104 | IMMS | ≤ 0.2
105 | VSAK | ≤ 0.2
106 | QKCM | ≤ 0.2
107 | CGRC | ≤ 0.2
108 | CGHR | ≤ 0.2
109 | HVGC | ≤ 0.2
110 | SRLG | ≤ 0.2
111 | FMVR | ≤ 0.2
112 | GDSC | ≤ 0.2
113 | MHPS | ≤ 0.2
114 | ASPL | ≤ 0.2
115 | EKYF | ≤ 0.2
116 | SCGD | ≤ 0.2
117 | YHQW | ≤ 0.2
118 | FEAR | ≤ 0.2
119 | VTTC | ≤ 0.2
120 | IGAR | ≤ 0.2

Row | Variant | one-hybrid fitness for binding parS DNA
121 | MTYW | ≤ 0.2
122 | ILMT | ≤ 0.2
123 | KTTA | ≤ 0.2
124 | GHPT | ≤ 0.2
125 | HNCG | ≤ 0.2
126 | SLVL | ≤ 0.2
127 | NYKL | ≤ 0.2
128 | RCCH | ≤ 0.2
129 | QFKW | ≤ 0.2
130 | LMRF | ≤ 0.2
131 | KNAC | ≤ 0.2
132 | HRPK | ≤ 0.2
133 | QSCP | ≤ 0.2
134 | AFQW | ≤ 0.2
135 | RFYA | 0.578
136 | HHLL | ≤ 0.2
137 | TDDR | ≤ 0.2
138 | QESY | ≤ 0.2
139 | LPAG | ≤ 0.2
140 | TVII | ≤ 0.2
141 | KCYL | ≤ 0.2
142 | PLCL | ≤ 0.2
143 | GQHC | ≤ 0.2
144 | QYFC | ≤ 0.2

Row | Variant | one-hybrid fitness for binding parS DNA
145 | YMDT | ≤ 0.2
146 | HKCG | ≤ 0.2
147 | NSWG | ≤ 0.2
148 | YHLS | ≤ 0.2
149 | EYGR | ≤ 0.2
150 | HTPY | ≤ 0.2
151 | CCFS | ≤ 0.2
152 | TSQW | ≤ 0.2
153 | ICPC | ≤ 0.2
154 | RTCM | 0.298
155 | TRFL | ≤ 0.2
156 | QHVW | ≤ 0.2
157 | HANC | ≤ 0.2
158 | VMKS | ≤ 0.2
159 | QKET | ≤ 0.2
160 | AATF | ≤ 0.2
161 | LLTS | ≤ 0.2
162 | RWMG | 0.671
163 | HMLF | ≤ 0.2
164 | SCMG | ≤ 0.2
165 | DGDS | 0.263
166 | YPTW | ≤ 0.2
167 | CTMR | ≤ 0.2
168 | NIVE | ≤ 0.2

Row | Variant | one-hybrid fitness for binding parS DNA
169 | LIRT | ≤ 0.2
170 | QTKK | ≤ 0.2
171 | SMKG | ≤ 0.2
172 | PKNC | ≤ 0.2
173 | RFPM | ≤ 0.2
174 | HLKY | ≤ 0.2
175 | PGLD | ≤ 0.2
176 | FQRS | ≤ 0.2
177 | QLIA | ≤ 0.2
178 | RQDI | ≤ 0.2
179 | NLAC | ≤ 0.2
180 | VPWS | ≤ 0.2
181 | GNAL | ≤ 0.2
182 | CMER | ≤ 0.2
183 | QSIG | ≤ 0.2
184 | MDCR | ≤ 0.2
185 | DMKL | ≤ 0.2
186 | SFER | ≤ 0.2
187 | PDNV | ≤ 0.2
188 | DASP | ≤ 0.2
189 | LKDA | ≤ 0.2
190 | QPKY | ≤ 0.2
191 | ANCS | ≤ 0.2
192 | VTPN | ≤ 0.2

Row | Variant | one-hybrid fitness for binding parS DNA
193 | RTEV | ≤ 0.2
194 | TLKV | ≤ 0.2
195 | YFAD | ≤ 0.2
196 | EKHS | ≤ 0.2
197 | LRYP | ≤ 0.2
198 | HSAV | ≤ 0.2
199 | RYFE | ≤ 0.2
200 | QPQS | ≤ 0.2
201 | GKAC | ≤ 0.2
202 | QTTD | ≤ 0.2
203 | MHCG | ≤ 0.2
204 | RKCY | 0.369
205 | VQFS | ≤ 0.2
206 | WISW | ≤ 0.2
207 | DSTA | ≤ 0.2
208 | TDFS | ≤ 0.2
209 | HSQP | ≤ 0.2
210 | PLHM | ≤ 0.2
211 | SFLT | ≤ 0.2
212 | SWQG | ≤ 0.2
213 | NLMC | ≤ 0.2
214 | PRIV | ≤ 0.2
215 | LPPH | ≤ 0.2
216 | IEDG | ≤ 0.2

Row | Variant | one-hybrid fitness for binding parS DNA
217 | EATS | ≤ 0.2
218 | WSRP | ≤ 0.2
219 | RYTM | 0.295
220 | ICYS | ≤ 0.2
221 | VAES | ≤ 0.2
222 | PLTW | ≤ 0.2
223 | QQMF | ≤ 0.2
224 | FETS | ≤ 0.2
225 | EFKG | ≤ 0.2
226 | IQPG | ≤ 0.2
227 | ELHG | ≤ 0.2
228 | AIVL | ≤ 0.2
229 | PLKI | ≤ 0.2
230 | DSRA | ≤ 0.2
231 | TQPT | ≤ 0.2
232 | RDQC | ≤ 0.2
233 | NEWG | ≤ 0.2
234 | EMQT | ≤ 0.2
235 | TVKY | ≤ 0.2
236 | MHES | ≤ 0.2
237 | DACG | ≤ 0.2
238 | YIVW | ≤ 0.2
239 | SPRD | ≤ 0.2
240 | LRVG | ≤ 0.2

Row | Variant | one-hybrid fitness for binding parS DNA
241 | TGQT | ≤ 0.2
242 | NDIT | ≤ 0.2
243 | PQQE | ≤ 0.2
244 | CGPG | ≤ 0.2
245 | SKNC | ≤ 0.2
246 | RNSW | ≤ 0.2
247 | PENW | ≤ 0.2
248 | TETG | ≤ 0.2
249 | RGCR | ≤ 0.2
250 | SPFQ | ≤ 0.2
251 | MQDG | ≤ 0.2
252 | PNKF | ≤ 0.2
253 | PFTN | ≤ 0.2
254 | DNDW | ≤ 0.2
255 | TTHN | ≤ 0.2
256 | RFKI | ≤ 0.2
257 | AKEE | ≤ 0.2
258 | RVCS | 1.03
259 | AITT | ≤ 0.2
260 | KSKL | ≤ 0.2
261 | FYTL | ≤ 0.2
262 | NIRT | ≤ 0.2
263 | QHNK | ≤ 0.2
264 | CCQR | ≤ 0.2

Row | Variant | one-hybrid fitness for binding parS DNA
265 | NIQS | ≤ 0.2
266 | QQVR | ≤ 0.2
267 | KGLT | ≤ 0.2
268 | EMVC | ≤ 0.2
269 | NCTA | ≤ 0.2
270 | RVTH | 0.22
271 | SRYT | ≤ 0.2
272 | TSEF | ≤ 0.2
273 | VATC | ≤ 0.2
274 | RRSY | 0.46
275 | TRQK | ≤ 0.2
276 | TGLL | ≤ 0.2
277 | CPRP | ≤ 0.2
278 | KQMG | ≤ 0.2
279 | GFVP | ≤ 0.2
280 | YKMR | ≤ 0.2
281 | NPVW | ≤ 0.2
282 | QLGA | ≤ 0.2
283 | TQHA | ≤ 0.2
284 | ARHQ | ≤ 0.2
285 | GSHT | ≤ 0.2
286 | EHLT | ≤ 0.2
287 | AKSL | ≤ 0.2
288 | RWVM | 0.27

Row | Variant | one-hybrid fitness for binding parS DNA
289 | FIRS | ≤ 0.2
290 | PMTH | ≤ 0.2
291 | AMLW | ≤ 0.2
292 | HMQV | ≤ 0.2
293 | GAFG | ≤ 0.2
294 | QIYT | ≤ 0.2
295 | NNKS | ≤ 0.2
296 | YVDV | ≤ 0.2
297 | YKFL | ≤ 0.2
298 | HPLD | ≤ 0.2
299 | PAPF | ≤ 0.2
300 | GASE | ≤ 0.2
301 | HKKQ | ≤ 0.2
302 | HNHN | ≤ 0.2
303 | KCRL | ≤ 0.2
304 | PVPM | ≤ 0.2
305 | LLCI | ≤ 0.2
306 | WMRI | ≤ 0.2
